# Some of the results follow.
# Key:
# Assay in all cases: glycan array binding signal (z-score within array); higher = stronger binding
# Conditions in all cases: glycan notation: IUPAC condensed, linker removed
# [1] = target: Fuc(a1-2)Gal
# Summary of the method: (§1)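 Arrays were curated from the Consortium for Functional Glycomics database, 3228 in total, and kept only where the protein sequence was available. Binding is expressed as a within-array Z-score. This score was averaged across arrays of the same protein sequence at different concentrations or buffers and across linkers, and negative values can be read as non-binding.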
# [2] = target: Fuc(a1-2)Gal(b1-3)GalNAc
# Summary of the method: as §1
# [3] = target: Fuc(a1-2)Gal(b1-3)GalNAc(a1-3)[Fuc(a1-2)]Gal(b1-4)Glc
# Summary of the method: as §1
# [4] = target: Fuc(a1-2)Gal(b1-3)GalNAc(a1-3)[Fuc(a1-2)]Gal(b1-4)GlcNAc
# Summary of the method: as §1
# [5] = target: Fuc(a1-2)Gal(b1-3)GalNAc(b1-3)Gal
# Summary of the method: as §1
# [6] = target: Fuc(a1-2)Gal(b1-3)GalNAc(b1-3)Gal(a1-4)Gal(b1-4)Glc
# Summary of the method: as §1
# [7] = target: Fuc(a1-2)Gal(b1-3)GalNAc(b1-4)[Neu5Ac(a2-3)]Gal(b1-4)Glc
# Summary of the method: as §1
# [8] = target: Fuc(a1-2)Gal(b1-3)GlcNAc
# Summary of the method: as §1
# [9] = target: Fuc(a1-2)Gal(b1-3)GlcNAc(b1-2)Man(a1-3)[Fuc(a1-2)Gal(b1-3)GlcNAc(b1-2)Man(a1-6)]Man(b1-4)GlcNAc(b1-4)GlcNAc
# Summary of the method: as §1
# [10] = target: Fuc(a1-2)Gal(b1-3)GlcNAc(b1-2)Man(a1-3)[Fuc(a1-2)Gal(b1-3)GlcNAc(b1-2)Man(a1-6)]Man(b1-4)GlcNAc(b1-4)[Fuc(a1-6)]GlcNAc
# Summary of the method: as §1
# [11] = target: Fuc(a1-2)Gal(b1-3)GlcNAc(b1-3)Gal(b1-4)Glc
# Summary of the method: as §1
# [12] = target: Fuc(a1-2)Gal(b1-3)GlcNAc(b1-3)GalNAc
# Summary of the method: as §1
# [13] = target: Fuc(a1-2)Gal(b1-3)GlcNAc(b1-3)[Fuc(a1-2)Gal(b1-3)GlcNAc(b1-6)]GalNAc
# Summary of the method: as §1
# [14] = target: Fuc(a1-2)Gal(b1-3)GlcNAc(b1-3)[Gal(b1-4)GlcNAc(b1-6)]Gal(b1-4)Glc
# Summary of the method: as §1
# [15] = target: Fuc(a1-2)Gal(b1-3)GlcNAc(b1-3)[Neu5Ac(a2-6)Gal(b1-4)GlcNAc(b1-6)]Gal(b1-4)Glc
# Summary of the method: as §1
# [16] = target: Fuc(a1-2)Gal(b1-3)GlcNAc6S
# Summary of the method: as §1
# [17] = target: Fuc(a1-2)Gal(b1-3)[Fuc(a1-4)]GlcNAc
# Summary of the method: as §1
# [18] = target: Fuc(a1-2)Gal(b1-3)[Fuc(a1-4)]GlcNAc(b1-2)Man(a1-3)[Fuc(a1-2)Gal(b1-3)[Fuc(a1-4)]GlcNAc(b1-2)Man(a1-3)]Man(b1-4)GlcNAc(b1-4)GlcNAc
# Summary of the method: as §1
# [19] = target: Fuc(a1-2)Gal(b1-3)[Fuc(a1-4)]GlcNAc(b1-2)Man(a1-3)[Fuc(a1-2)Gal(b1-3)[Fuc(a1-4)]GlcNAc(b1-2)Man(a1-6)]Man(b1-4)GlcNAc(b1-4)[Fuc(a1-6)]GlcNAc(b1-4)[Fuc(a1-6)]GlcNAc
# Summary of the method: as §1
# [20] = target: Fuc(a1-2)Gal(b1-3)[Fuc(a1-4)]GlcNAc(b1-3)[Fuc(a1-3)[Gal(b1-4)]GlcNAc(b1-6)]Gal(b1-4)Glc
# Summary of the method: as §1
# [21] = target: Fuc(a1-2)Gal(b1-3)[Fuc(a1-4)]GlcNAc(b1-3)[Gal(b1-4)GlcNAc(b1-6)]Gal(b1-4)Glc
# Summary of the method: as §1
# [22] = target: Fuc(a1-2)Gal(b1-4)Fuc(a1-3)]GlcNAc(b1-2)Man(a1-3)[Fuc(a1-2)Gal(b1-4)[Fuc(a1-3)]GlcNAc(b1-2)Man(a1-6)]Man(b1-4)GlcNAc(b1-4)GlcNAc
# Summary of the method: as §1
# [23] = target: Fuc(a1-2)Gal(b1-4)Glc
# Summary of the method: as §1
# [24] = target: Fuc(a1-2)Gal(b1-4)Glc6S
# Summary of the method: as §1
# [25] = target: Fuc(a1-2)Gal(b1-4)GlcNAc
# Summary of the method: as §1
# [26] = target: Fuc(a1-2)Gal(b1-4)GlcNAc(b1-2)Man
# Summary of the method: as §1
# [27] = target: Fuc(a1-2)Gal(b1-4)GlcNAc(b1-2)Man(a1-3)[Fuc(a1-2)Gal(b1-4)GlcNAc(b1-2)Man(a1-6)]Man(b1-4)GlcNAc(b1-4)GlcNAc
# Summary of the method: as §1
# [28] = target: Fuc(a1-2)Gal(b1-4)GlcNAc(b1-2)Man(a1-3)[Fuc(a1-2)Gal(b1-4)GlcNAc(b1-2)Man(a1-6)]Man(b1-4)GlcNAc(b1-4)[Fuc(a1-6)]GlcNAc
# Summary of the method: as §1
# [29] = target: Fuc(a1-2)Gal(b1-4)GlcNAc(b1-2)[Fuc(a1-2)Gal(b1-4)GlcNAc(b1-4)]Man(a1-3)[Fuc(a1-2)Gal(b1-4)GlcNAc(b1-2)Man(a1-6)]Man(b1-4)GlcNAc(b1-4)GlcNAc
# Summary of the method: as §1
# [30] = target: Fuc(a1-2)Gal(b1-4)GlcNAc(b1-3)Gal(b1-4)GlcNAc
# Summary of the method: as §1
binder,measurement,setting,value
CAA (Caragana arborescens) (protein) VAVEFDTFDNPDWDPRTKHIGIDVNSIRSNKTTQWGFWNRQVADVDISYEASSKTLNVSLYYPGESYIVTDVVDLKDILPEWVRIGF,glycan array binding signal (z-score),[1],-0.218
same,glycan array binding signal (z-score),[2],-0.241
same,glycan array binding signal (z-score),[3],-0.248
same,glycan array binding signal (z-score),[4],-0.248
same,glycan array binding signal (z-score),[5],-0.238
same,glycan array binding signal (z-score),[6],-0.234
same,glycan array binding signal (z-score),[7],-0.239
same,glycan array binding signal (z-score),[8],-0.24
same,glycan array binding signal (z-score),[9],4.07
same,glycan array binding signal (z-score),[10],2.49
same,glycan array binding signal (z-score),[11],-0.237
same,glycan array binding signal (z-score),[12],-0.244
same,glycan array binding signal (z-score),[13],-0.242
same,glycan array binding signal (z-score),[14],-0.249
same,glycan array binding signal (z-score),[15],-0.254
same,glycan array binding signal (z-score),[16],-0.245
same,glycan array binding signal (z-score),[17],-0.244
same,glycan array binding signal (z-score),[18],-0.14
same,glycan array binding signal (z-score),[19],1.03
same,glycan array binding signal (z-score),[20],-0.239
same,glycan array binding signal (z-score),[21],-0.239
same,glycan array binding signal (z-score),[22],-0.171
same,glycan array binding signal (z-score),[23],-0.238
same,glycan array binding signal (z-score),[24],-0.229
same,glycan array binding signal (z-score),[25],-0.242
same,glycan array binding signal (z-score),[26],-0.251
same,glycan array binding signal (z-score),[27],2.51
same,glycan array binding signal (z-score),[28],0.263
same,glycan array binding signal (z-score),[29],-0.069
same,glycan array binding signal (z-score),[30],-0.243

# — the supplement of paper PMC8728848
